Here are results for 40 compounds from PubChem BioAssay (NCATS).

Some of the results follow. These are further read-outs of the screen, such as a control signal, another cell line or another target. No call is given for them. Most of these compounds were active or inconclusive in the main read-out, so they are no random draw.

A short description of this assay: qHTS Assay for Lipid Storage Modulators (AID 1519). Conditions: Drosophila S3 cells, BODIPY lipid droplet/cell ratio, laser cytometry; measured here: cell count channel max response; cells loaded with oleic acid. Summed up:
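Cells seeded at 5,000 per well were treated with compounds over a concentration series and loaded with oleic acid (400 uM, as added). Lipid droplet fluorescence (488 nm excitation, 500-530 nm channel) was read by laser-scanning cytometry and normalized to 20 uM Triacsin C.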
For `COc1cc2c(C=O)c3c4c(cc(OC)c(OC)c4c2cc1OC)CCN3C`, the max response turned out to be 95.1%. The value for `c1cncc(-c2ccc3ncnc(NCCN4CCOCC4)c3c2)c1` was 27.1%; that for `CCNc1ncc2nc(-c3ccccc3)c(=O)n(Cc3ccc(F)cc3)c2n1` was 14.2%. The value for `O=C(O)c1c2ccccc2cc2ccccc12` was 66.9%; that for `COC(=O)Nc1ccc2[nH]cc(CCNC(C)=O)c2c1` was 52.1%.

For `Cc1nc2cnc(Oc3cccc(Cl)c3)nc2n(CCc2ccccc2)c1=O`, the max response was 11.6%. As for `COc1cc2c(cc1OC)-c1c(OC)c(OC)cc3ccnc(c13)C2=O`, the figure is 74.5%. The value for `CCNc1ncc2nc(CCc3ccccc3)c(=O)n(C)c2n1` was 19.5%; that for `COc1ccc(-n2c(=O)c(-c3cccc(F)c3)nc3cncnc32)cc1` was 38.7%. As for `COc1ccc(CNc2ccnc(-c3ccoc3)n2)c(OC)c1`, the figure is 21.2%; as for `CC(=O)NCCNc1nc(-c2cccc(NS(C)(=O)=O)c2)nc2ccccc12`, 39.7%; as for `COc1cccc2c1C(=O)CC(c1ccccc1)O2` (stereo not given), 114%.

In the case of `Cc1ccc(CC(Cc2nc3ccccc3[nH]2)c2nc3ccccc3[nH]2)cc1` (stereo not given), the max response is 84.6%.

`COc1ccc(Oc2ncc3ncc(=O)n(Cc4ccc(F)cc4)c3n2)cc1`: the max response is 15.5%. As for `Cc1cnc(CNc2ncnc3ccc(-c4ccc(N(C)C)cc4)cc23)cn1`, the figure is 25.4%. As for `COc1ccc2[nH]cc(CCNc3ncnc4ccc(-c5cccc(C#N)c5)cc34)c2c1`, the figure is -4.87%. As for `Cc1cnc(CNc2cc(-c3ccc(N(C)C)cc3)ncn2)cn1`, the figure is 27.7%; as for `CC(=O)OC1CCC2(C)C(CCC3(C)C2C(=O)C=C2C4CC(C)(C(=O)OCCN5CCCCC5)CCC4(C)CCC23C)C1(C)C` (stereo not given), 40.5%; as for `COc1ccccc1CNc1cc(-c2ccccc2C(F)(F)F)ncn1`, 42%. Consider `O=C(Oc1ccccc1)N1CCC2(CCCN(c3ncccn3)C2)CC1`, for which the max response was determined as 9.73%.

Turning to `COc1ccc2[nH]cc(CCNc3ccnc(-c4ccccc4Cl)n3)c2c1`, the max response came to 16.2%.

Take `COC(=O)CC[C@@H](C)[C@H]1CC[C@H]2[C@@H]3CC[C@@H]4C[C@H](O)CC[C@]4(C)[C@H]3C[C@H](O)[C@]12C`: the max response is 43.9%. The value for `CN1CCN(c2ncnc3ccc(-c4cccc(C#N)c4)cc23)CC1` was 16.9%; that for `O=c1c(-c2cccs2)nc2cnc(N3CCNCC3)nc2n1Cc1cccs1` was -59.4%. As to `CCNc1ncc2nc(-c3ccc(OC)cc3)c(=O)n(CCc3ccccc3)c2n1`, the max response turned out to be 31.4%.

As to `Cc1ccccc1-c1cc(N(C)Cc2ccco2)ncn1`, the max response was 36.7%. The value for `COc1ccc(CNc2nc(-c3cccc(C#N)c3)nc3ccccc23)c(OC)c1` was 32.1%. As to `CNC(=O)[C@H]1O[C@H](n2cnc3c(NCc4cccc(I)c4)ncnc32)[C@@H](O)[C@@H]1O`, the max response was 64.1%. The value for `COc1ccc(-c2coc3ccc(OC4OC(COC(C)=O)C(OC(C)=O)C(OC(C)=O)C4OC(C)=O)cc3c2=O)cc1` (stereo not given) was 35.5%; that for `COc1ncc2nc(-c3ccc(F)cc3)c(=O)n(Cc3cccs3)c2n1` was 37.7%.

On to `Cc1cccc(CNc2cc(-c3ccc(N(C)C)cc3)ncn2)c1`, for which the max response is -41%. As for `CCCCCCCC/C=C\CCCCCCCC(=O)N[C@@H](CO)Cc1ccc(O)cc1`, the figure is 60.8%; as for `Cc1cnc(CNc2cc(-c3ccccc3C)ncn2)cn1`, 46.6%. The value for `O=c1cnc2cnc(Oc3ccccc3)nc2n1Cc1cccs1` was 32.1%; that for `N#Cc1ccccc1-c1ccc2ncnc(NC3CC3)c2c1` was 35.7%. With `CN(C)c1ncc2nc(-c3ccc(Cl)cc3)c(=O)n(C)c2n1`, the max response was 23%. Regarding `COc1cccc(-c2cc(NCc3ccc(OC)cc3OC)ncn2)c1`, the max response turned out to be 28.7%.

Turning to `O=c1cc(-c2ccccc2O)oc2c(O)c(O)ccc12`, the max response turned out to be 72.9%. The value for `COc1ccc(CNc2ccnc(-c3cccnc3)n2)c(OC)c1` was 13.6%; that for `N#Cc1cccc(-c2nc(NCc3cccnc3)c3ccccc3n2)c1` was 3.37%.
